Results on 27 molecules are retold here after the antibiotic and cytotoxicity screens of Wong et al. (2023).

Each structure is given as a SMILES string. This is one part of the list.

For experiment [1], the system named is HSkMC (human skeletal muscle cells). As to the kind of experiment: cytotoxicity call (relative viability < 0.9). To be noted: 10 µM.
Experiment [2] deals with HepG2. Put plainly: cytotoxicity call (relative viability < 0.9). To be noted: 10 µM.
The subject of experiment [3] is S. aureus RN4220. As to the kind of experiment: growth inhibition call (relative growth <= 0.2). The conditions noted are these: 50 µM.

As to `C[C@@H]1CCCCO[C@H](CN(C)Cc2ccc(C(=O)Nc3ccccc3N)cc2)[C@@H](C)CN([C@H](C)CO)C(=O)c2cc(NS(=O)(=O)c3cccs3)ccc2O1`, the cytotoxicity call in experiment [1] and in experiment [2] was “inactive” in each case. The growth inhibition call in experiment [3] was “inactive”.

Turning to `NNC(=O)c1cc(=S)nc[nH]1`, the cytotoxicity call in experiment [1] and in experiment [2] was “inactive” throughout. Also, the growth inhibition call in experiment [3] was “inactive”.

Turning to `COCC#Cc1ccc2c(c1)O[C@H](CN(C)C(=O)c1ccccc1F)[C@H](C)CN([C@@H](C)CO)S2(=O)=O`, the cytotoxicity call in experiment [1] and in experiment [2] was “inactive” each time. The growth inhibition call in experiment [3] is “inactive”.

Turning to `O=C(CCCCCNC(=O)OCc1ccc(CO[C@H]2C[C@@H](C3CCCCC3)C=C(C(=O)N3CCN(Cc4ccc5c(c4)OCO5)CC3)O2)cc1)NO`, the cytotoxicity call in experiment [1] and in experiment [2] was “inactive” in each case. Further, the growth inhibition call in experiment [3] is “inactive”.

For `C[C@@H]1CN([C@H](C)CO)C(=O)Cc2cc(NS(=O)(=O)c3cn(C)cn3)ccc2O[C@@H]1CN(C)S(=O)(=O)c1ccc(Cl)cc1`, the cytotoxicity call in experiment [1] and in experiment [2] was “inactive” throughout. In addition, the growth inhibition call in experiment [3] is “inactive”.

As to `O=C(Cc1ccncc1)NCC[C@H]1CC[C@@H](NC(=O)C2CCOCC2)[C@H](CO)O1`, the cytotoxicity call in experiment [1] and in experiment [2] was “inactive” each time. Also, in experiment [3], the growth inhibition call was “inactive”.

Regarding `C[C@H](CO)N1C[C@H](C)[C@@H](CN(C)S(=O)(=O)c2ccccc2F)Oc2cc(C#Cc3cccc(F)c3)ccc2S1(=O)=O`, the cytotoxicity call in experiment [1] and in experiment [2] was “inactive” throughout. Moreover, the growth inhibition call in experiment [3] was “inactive”.

As for `C[C@@H]1CN([C@H](C)CO)S(=O)(=O)c2ccc(C3=CCCC3)cc2O[C@H]1CN(C)C(=O)c1cnccn1`, the cytotoxicity call in experiment [1] and in experiment [2] was “inactive” in each case. In experiment [3], the growth inhibition call is “inactive”.

With `C[C@@H]1CN([C@@H](C)CO)C(=O)c2cc(NC(=O)Nc3cccc4ccccc34)ccc2O[C@@H](C)CCCCO[C@@H]1CN(C)C(=O)c1ccccc1`, the cytotoxicity call in experiment [1] and in experiment [2] was “inactive” throughout. Besides, in experiment [3], the growth inhibition call was “inactive”.

On to `C[C@H](CO)N1C[C@H](C)[C@H](CN(C)C(=O)Nc2ccc(C(F)(F)F)cc2)Oc2ccc(NC(=O)Nc3cccc4ccccc34)cc2C1=O`, for which the cytotoxicity call in experiment [1] and in experiment [2] was “inactive” throughout. Moreover, in experiment [3], the growth inhibition call is “inactive”.

Take `C[C@H]1CN([C@@H](C)CO)C(=O)c2cccc(NC(=O)c3ccc(-c4nccs4)cc3)c2O[C@@H]1CN(C)C(=O)NC1CCCCC1`: the cytotoxicity call in experiment [1] and in experiment [2] was “inactive” each time. The growth inhibition call in experiment [3] is “inactive”.

For the molecule `Cc1noc(C)c1NC(=O)N(C)C[C@H]1Oc2ccc(NC(=O)c3ccncc3)cc2CC(=O)N([C@H](C)CO)C[C@H]1C`, the cytotoxicity call in experiment [1] and in experiment [2] was “inactive” each time. Moreover, the growth inhibition call in experiment [3] was “inactive”.

As for `C[C@H]1CC[C@@H]2C(C(=O)O[C@H]3[C@H]4O[C@@]4(C)[C@H]4[C@@H](O[C@H]5O[C@@H](CO)[C@@H](O)[C@@H](O)[C@@H]5O)OC=C[C@@]34O)=CO[C@H](O[C@H]3O[C@@H](CO)[C@@H](O)[C@@H](O)[C@@H]3O)[C@@H]21`, the cytotoxicity call in experiment [1] and in experiment [2] was “inactive” throughout. In addition, the growth inhibition call in experiment [3] is “inactive”.

As to `C[C@H](CO)N1C[C@H](C)[C@H](CN(C)C(=O)Nc2ccc(F)cc2)Oc2ccc(NS(=O)(=O)c3cn(C)cn3)cc2CC1=O`, the cytotoxicity call in experiment [1] and in experiment [2] was “inactive” each time. The growth inhibition call in experiment [3] is “inactive”.

In the case of `CN1CCN(C(=O)C[C@@H]2CC[C@H]3[C@@H](COC[C@H](O)CN3C(=O)C3CC3)O2)CC1`, the cytotoxicity call in experiment [1] and in experiment [2] was “inactive” each time. In addition, the growth inhibition call in experiment [3] was “inactive”.

Consider `C[C@H](CO)N1C[C@H](C)[C@@H](CN(C)S(=O)(=O)c2ccc(F)cc2)Oc2c(NC(=O)C3CCOCC3)cccc2C1=O`, for which the cytotoxicity call in experiment [1] and in experiment [2] was “inactive” in each case. For the same molecule, the growth inhibition call in experiment [3] is “inactive”.

With `Cc1ccc(S(=O)(=O)N(C)C[C@H]2Oc3ccc(NS(=O)(=O)c4c(C)noc4C)cc3CC(=O)N([C@@H](C)CO)C[C@H]2C)cc1`, the cytotoxicity call in experiment [1] and in experiment [2] was “inactive” each time. In experiment [3], the growth inhibition call is “inactive”.

In the case of `COCC(=O)N1C[C@H](C)[C@@H](OC)CN(C)C(=O)c2ccc(NC(=O)Nc3ccccc3)cc2OC[C@@H]1C`, the cytotoxicity call in experiment [1] and in experiment [2] was “inactive” in each case. For the same molecule, in experiment [3], the growth inhibition call was “inactive”.

In the case of `COC(=O)C1=C(C)NC(C)=C(C(=O)OCC(C)C)C1c1ccccc1[N+](=O)[O-]` (stereo unspecified), the cytotoxicity call in experiment [1] and in experiment [2] was “inactive” each time. In addition, in experiment [3], the growth inhibition call was “inactive”.

As for `CC(C)(C)OC(=O)C[C@H]1CC=CC[C@H](CC(=O)N(CCO)Cc2ccccc2)C(=O)N2CCC[C@@H]2COC1=O`, the cytotoxicity call in experiment [1] and in experiment [2] was “inactive” throughout. Besides, the growth inhibition call in experiment [3] is “inactive”.

Take `COc1ccc(NC(=O)Nc2ccc3c(c2)C(=O)N([C@@H](C)CO)C[C@H](C)[C@@H](CN(C)Cc2ccc(C(=O)O)cc2)OCCCC[C@H](C)O3)cc1`: the cytotoxicity call in experiment [1] and in experiment [2] was “inactive” in each case. In addition, the growth inhibition call in experiment [3] is “inactive”.

`C[C@@H]1CN([C@@H](C)CO)C(=O)c2cc(NC(=O)Nc3ccc(C(F)(F)F)cc3)ccc2O[C@@H]1CN(C)S(=O)(=O)c1ccc(Cl)cc1`: the cytotoxicity call in experiment [1] and in experiment [2] was “active” in each case. Further, the growth inhibition call in experiment [3] is “inactive”.

On to `CCCNC(=O)N(C)C[C@H]1Oc2ncc(-c3ccc(C(=O)N(C)C)cc3)cc2C(=O)N([C@H](C)CO)C[C@H]1C`, for which the cytotoxicity call in experiment [1] and in experiment [2] was “inactive” each time. Besides, in experiment [3], the growth inhibition call was “inactive”.

Regarding `Cc1ccc(S(=O)(=O)N(C)C[C@@H]2Oc3ccc(NC(=O)CCCN(C)C)cc3CC(=O)N([C@@H](C)CO)C[C@H]2C)cc1`, the cytotoxicity call in experiment [1] and in experiment [2] was “inactive” in each case. For the same molecule, the growth inhibition call in experiment [3] was “inactive”.

On to `COc1ccc(NC(=O)Nc2ccc3c(c2)C(=O)N([C@@H](C)CO)C[C@@H](C)[C@H](CN(C)C(=O)c2ccccc2)OCCCC[C@H](C)O3)cc1`, for which the cytotoxicity call in experiment [1] and in experiment [2] was “inactive” throughout. In addition, the growth inhibition call in experiment [3] is “inactive”.

Take `CN[C@@H]1[C@H](O[C@H]2[C@H](O[C@H]3[C@H](O)[C@@H](O)[C@H](NC(=N)N)[C@@H](O)[C@@H]3NC(=N)N)O[C@@H](C)[C@]2(O)C=O)O[C@@H](CO)[C@H](O)[C@H]1O`: the cytotoxicity call in experiment [1] and in experiment [2] was “inactive” each time. In experiment [3], the growth inhibition call is “inactive”.

`C[C@@H](O)CN(CCN(C[C@@H](C)O)C[C@@H](C)O)C[C@@H](C)O`: the cytotoxicity call in experiment [1] and in experiment [2] was “inactive” each time. Moreover, the growth inhibition call in experiment [3] was “inactive”.
